# Measurements reported in PubChem BioAssay AID686979 (National Center for Advancing Translational Sciences (NCATS), 2013).
# Several values for one entry are separate records, joined by “and”; a condition that tells them apart may be missing. Equal entries are not always repeated. Out of some 420,000 compounds screened, about 50,000 (12%) were called active. The inconclusive results got no clear call from the source; some entries with a clear call stand among them for comparison. Calls follow the shape of the dose curve; as a rule, active = well fitted inhibition curve with a large enough effect; inconclusive = small, poorly fitted or top-dose-only effect; inactive = flat fitted curve, though single readings scatter. Potencies of inconclusive entries are doubtful fits and often do not repeat.
# Assay: qHTS for Inhibitors of human tyrosyl-DNA phosphodiesterase 1 (TDP1): qHTS in cells in presence of CPT; also: nearly all actives have a fitted effect of over 55% in size
# Conditions: chicken DT40 Tdp1-/-;hTDP1 cells + 20 nM CPT, ATP luminescence, 48 h; activity change, negative = growth inhibition: at 46.2 µM (top of the series) unless noted
# In short: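 Chicken DT40 Tdp1-/- cells complemented with human TDP1, 400 cells/well, exposed to compounds plus 20 nM camptothecin for at least 48 h at 37 C; viability read as ATP content by CellTiter-Glo luminescence.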
# % is scaled to controls: 0 for no effect and ±100 for the full control effect; potency is read from the fitted curve at half-maximal effect; tags tell the direction and shape of the fitted curve.
SMILES,Potency,"activity change, negative = growth inhibition"
O=C(CCNc1cc(Cl)cc(Cl)c1)c1ccco1,active: 13 µM,–
Cc1nc2ccccc2c(=O)n1-c1ccc(NS(=O)(=O)c2ccc(F)cc2F)cc1,inactive,–
COC(=O)COc1ccc(-c2nccc(-c3ccc(Br)cc3)n2)cc1,active: 20.6 µM,–
CO/N=C1\CCn2c1c(C)c1ccccc12,inactive,–
COC(=O)CCSC(=S)N1CCOCC1,inactive,–
Cc1cccc(CC(=O)Nc2cccc(-c3cn4cccnc4n3)c2)c1,"inconclusive: 25.9 µM [inhibitor, single point]",–
CCOC(=O)C1(Cc2ccc(OC)cc2)CCN(C(=O)c2ccc3[nH]ccc3c2)CC1,active: 9.2 µM,–
COc1ccc(N2CCN(C(=O)c3cccnc3SCc3cccc(Br)c3)CC2)cc1,"inconclusive: 29.1 µM [inhibitor, single point]",–
COc1ccc(CCNC(=O)c2ccc(OCc3c(C)noc3C)cc2)cc1OC,"inconclusive: 29.1 µM [inhibitor, single point]",–
COc1ccc(C(=O)C(C)[n+]2ccc(-c3nnc4n3CCCCC4)cc2)cc1 (stereo unspecified),inactive,–
CCN1CCN(c2ccc(S(=O)(=O)N3CCCCC3)cc2NC(=O)c2ccc([N+](=O)[O-])o2)CC1,active: 8.2 µM,–
CCOc1ccc(C(=O)N2CCc3ccccc32)cc1OCC,inactive,–
COC(=O)[C@@]12C[C@@H](CC(=O)NCc3cccc4ccccc34)C(=O)N(CCc3ccc(OC)c(OC)c3)C1=CCC(C)(C)C2,"inconclusive: 29.1 µM [inhibitor, single point]",–
COc1ccc(CN2CCOc3ccc(CN4CCN(CCO)CC4)cc3C2)c2ccccc12,–,inactive: -4.36% [at 9.04 µM]
Cc1cccc(OCC(=O)NCCCNC(=O)c2ccc(C)nc2)c1,inactive,–
COc1cccc(C2c3[nH]c4ccccc4c3CCN2C(=O)c2ccccc2F)c1OC (stereo unspecified),"inconclusive: 29.1 µM [inhibitor, single point]",–
CCNC(=S)N1CCN(C(c2ccccc2)c2ccccc2)CC1,"inconclusive: 23.1 µM [inhibitor, partial curve, poor fit]",–
C/C(=N\NC(=O)c1ccccc1F)c1ccc2c(c1)Nc1ccccc1S2,active: 5.8 µM,–
O=C(Cn1cc(-c2nnnn2-c2ccc(Cl)cc2)c(=O)c2ccccc21)c1ccccc1,"inconclusive: 29.1 µM [inhibitor, single point]",–
O=C(CSc1nc2ccccc2n1CC(=O)N1CCCC1)N1CCN(C(=O)c2ccco2)CC1,–,inconclusive: -30.7% [inhibitor]
CC1CN(C(=S)NC(=O)c2ccc([N+](=O)[O-])cc2)CC(C)O1 (stereo unspecified),inactive,–
CCc1ccc(S(=O)(=O)Nc2ccc3oc(C)c(C(=O)OCCOC)c3c2)cc1,"inconclusive: 10.3 µM [inhibitor, partial curve]",–
CCOc1ccc2[nH]c(=O)c(CN(Cc3cccs3)Cc3nnnn3C(C)(C)CC)cc2c1,active: 16.4 µM,–
COc1ccccc1-c1c(C)oc2c(CN3CCN(CCO)CC3)c(O)ccc2c1=O,inactive,–

SMILES,Potency,"activity change, negative = growth inhibition"
COc1ccc(CNC(=O)C2CCN(S(=O)(=O)Cc3ccccc3)CC2)cc1,"inconclusive: 14.6 µM [inhibitor, partial curve, poor fit]",–
Cc1ccc(C(C)C)c(OCCNC(=O)c2ccccc2O)c1,active: 14.6 µM,–
O=C(Cc1ccccc1)Nc1nc(-c2ccc(F)c(F)c2)cs1,active: 1.84 µM,–
O=c1[nH]c(N/N=C/c2cc3c(cc2[N+](=O)[O-])OCO3)nc2ccccc12,inactive,–
CCNC(=O)C1(C)CCN(C(=O)c2cccc(OC(F)(F)F)c2)C1 (stereo unspecified),inactive,–
Cc1cccc(NC(=O)c2cc3c(C)nn(-c4ccccc4)c3s2)c1,"inconclusive: 29.1 µM [inhibitor, single point]",–
N#Cc1cc2ccccc2nc1SCC(=O)NC1CC1,inactive,–
CCCC1=Nc2cc(C(=O)NCCN3CCCC3)ccc2Sc2ccccc21,"inconclusive: 25.9 µM [inhibitor, single point]",–
CC1(C(=O)Nc2ccc(Cl)c(C(F)(F)F)c2)Cc2c(-c3ccccc3)ccnc2O1 (stereo unspecified),"inconclusive: 25.9 µM [inhibitor, single point]",–
COCCOc1cc(NC(=O)c2sccc2Oc2ccc([N+](=O)[O-])cc2F)c(Cl)cc1Cl,"inconclusive: 29.1 µM [inhibitor, single point]",–
CCOC(=O)c1sc(=S)n(C)c1NC(=O)c1ccccc1,"inconclusive: 29.1 µM [inhibitor, single point]",–
CCc1ccccc1NC(=O)CN1CCN(CC(=O)Nc2ccc(-c3ccccc3)cc2)CC1,"inconclusive: 32.6 µM [inhibitor, single point]",–
O=C(CSc1ccc(Cl)cc1)Nc1ccc(N2CCN(c3ccccc3)CC2)c(F)c1,–,inconclusive: -34% [inhibitor]
COC(=O)/C=C1\OCc2cc(OCc3ccccc3)ccc21,"inconclusive: 29.1 µM [inhibitor, single point]",–
O=C(Cc1ccccc1)NC1c2ccccc2-c2ccccc21,inactive,–
C=CCc1ccc(OCCCCN2CC(C)OC(C)C2)c(OC)c1 (stereo unspecified),"inconclusive: 16.4 µM [inhibitor, partial curve]",–
Cc1cc2oc3c(c(=O)c2cc1C)C(c1cccc(Br)c1)N(Cc1ccco1)C3=O (stereo unspecified),"inconclusive: 29.1 µM [inhibitor, single point]",–
Cc1cccc(-c2sc(Nc3ccccc3)n[n+]2-c2ccc(F)cc2)c1,active: 7.31 µM,–
Cc1cc(C)n2nc(CNS(=O)(=O)c3ccc(F)c(C)c3)nc2n1,inactive,–
O=C(Cc1ccccc1)NCc1n[nH]c(=S)n1-c1ccccc1,inactive,–
Oc1ccc(CCNc2ncnc3ccc(Cl)cc23)cc1,active: 2.59 µM,–
CCn1c(SCC(=O)Nc2ccc(C)cc2)nnc1-c1ccccn1,"inconclusive: 18.4 µM [inhibitor, single point]",–
CCCCN(c1ccccc1)S(=O)(=O)c1cc2c3c(c1)C(C)C(=O)N3CCC2 (stereo unspecified),active: 10.3 µM,–
Nc1nc2ccccc2n1C(=O)CCc1ccccc1,"inconclusive: 29.1 µM [inhibitor, single point]",–

SMILES,Potency,"activity change, negative = growth inhibition"
CCN(CC)S(=O)(=O)c1ccc(N2CCN(C)CC2)c(NC(=O)COc2ccc(F)cc2Cl)c1,"inconclusive: 18.4 µM [inhibitor, single point]",–
CC(C)(C)c1ccc(OC(=O)Nc2ccc(O)c(C(=O)O)c2)cc1,inactive,–
CCN(c1ccc(OC)cc1)S(=O)(=O)c1cc(-c2cc(C)no2)ccc1C(C)C,"inconclusive: 23.1 µM [inhibitor, single point]",–
NC1=NC[C@@H](Cc2ccc(O)cc2)N1CCc1cccc(F)c1,"inconclusive: 25.9 µM [inhibitor, partial curve]",–
CCCN1CCC(=O)N([C@H](CSc2ccc(OC)cc2)Cc2ccccc2)CC1,"inconclusive: 23.1 µM [inhibitor, single point]",–
CCN(C(=O)COC(=O)C12CC3CC(CC(O)(C3)C1)C2)c1c(N)n(Cc2ccccc2)c(=O)[nH]c1=O,inactive,–
Cc1cc(=O)oc2c(C)c(OC(C)C(=O)N3CC[C@@]4(O)CCCC[C@H]4C3)ccc12 (stereo partly specified),inactive,–
COc1ccc(NC(=O)CC(NCc2ccccn2)C(=O)O)cc1 (stereo unspecified),inactive,–
CC(C)Oc1cccc(C(=O)C2CCCN(Cc3cnc(N4CCCC4)s3)C2)c1 (stereo unspecified),"inconclusive: 29.1 µM [inhibitor, single point]",–
Cc1ccc2nc(-c3ccccn3)cc(C(=O)NCCc3ccc(F)cc3)c2c1,"inconclusive: 23.1 µM [inhibitor, single point]",–
Clc1ccc(CNCc2cccs2)c(Cl)c1,"inconclusive: 29.1 µM [inhibitor, single point]",–
CCCCNC(=O)c1ccc(CS(=O)(=O)Cc2ccccc2F)o1,"inconclusive: 9.2 µM [inhibitor, partial curve]",–
CCOC(=O)C1CCCN(C(=O)COc2ccc(C(C)(C)C)cc2)CC1 (stereo unspecified),active: 20.6 µM,–
CCOC(=O)C1CCCN(S(=O)(=O)c2cc(Br)cc3c2N(C(=O)CC)CC3)C1 (stereo unspecified),"inactive and inconclusive: 10.3 µM [inhibitor, partial curve]",–
CCOc1ccc(C2c3[nH]c4ccccc4c3CCN2C(=O)CCC2CCCC2)cc1 (stereo unspecified),active: 20.6 µM,–
COc1cc(NS(=O)(=O)c2ccc(Nc3nc(-c4ccccc4)cs3)cc2)nc(OC)n1,inactive,–
CCN(CCCNC(=O)CN1N=C(c2ccc(C)cc2)CCC1=O)c1ccccc1,"inconclusive: 20.6 µM [inhibitor, single point]",–
CCCn1nnnc1NC(=O)c1ccc2ccccc2c1,"inconclusive: 16.4 µM [inhibitor, single point]",–
O=C(CSc1nc2ccccc2c(=O)n1-c1ccc(F)cc1F)c1c[nH]c2ccccc12,"inconclusive: 29.1 µM [inhibitor, single point]",–
Cc1ccn2c(=O)c(NC(=O)c3cccc([N+](=O)[O-])c3C)c(C)nc2c1,active: 14.6 µM,–
Cc1nn(-c2ccc(N3CCCCC3)nn2)c(C)c1CCC(=O)Nc1cccc(F)c1,"inconclusive: 18.4 µM [inhibitor, single point] and inconclusive: 29.1 µM [inhibitor, single point]",–
Fc1ccc(-n2ncc3c(NCCCc4ccccc4)ncnc32)cc1,"inconclusive: 23.1 µM [inhibitor, single point]",–
O=C(COc1ccc(S(=O)(=O)Nc2cccc(C(F)(F)F)c2)cc1)N1CCOCC1,"inconclusive: 29.1 µM [inhibitor, single point]",–
